Assay results reported in patent US5011833A, “Novel derivatives of 6,11-dihydro-dibenzo(C,F)(1,2,5)-thiadiazepine 5,5-dioxide, salts thereof and appropriate processes for the preparation thereof” (A. Menarini Industrie Farmaceutiche Riunite, priority 1988, dated 1991).
Read-outs that look alike come from different tables or passages of the source.

What was measured:
reserpine hypothermia = assay: counteracting reserpine hypothermia; conditions: Mus musculus, po, read-out: minimum oral dose effective in counteracting reserpine hypothermia
[1] = system: hypothermia induced by apomorphine; assay: inhibition of hypothermia induced by apomorphine (apomorphine test); conditions: Mus musculus, read-out: ED-50 in counteracting the hypothermia induced by apomorphine

Row | SMILES | minimal effective dose (reserpine hypothermia) [mg/kg] | ED50 ([1]; ip) [mg/kg] | ED50 ([1]; po) [mg/kg]
1 | CN(C)CC(=O)N1c2ccccc2N(C)S(=O)(=O)c2ccccc21 [Compound 1, 6-Methyl-6,11-dihydro-11-(N,N-dimethylaminoacetyl)dibenzo[c,f][1,2,5]thiadiazepine 5,5-dioxide] | 25 | 4.7 | 13.5
2 | CN(C)CCCN1c2ccccc2N(C)S(=O)(=O)c2ccccc21 [reference compound] | 100 |  | 
